The target in assay [1] is Neurokinin-1 receptor, C-terminal SmBiT- or LgBiT-tagged (UniProt P25103). The assay can be described thus: split reporter; NanoBiT; HEK293 cells co-expressing C-terminal SmBiT- and LgBiT-tagged NKs, 50 ng of each plasmid, luminescence in Opti-MEM at room temperature, compared with vector.
The target in assay [2] is T1, Neurokinin-3 receptor, FLAG- or HA-tagged (UniProt P29371).
T1 sequence: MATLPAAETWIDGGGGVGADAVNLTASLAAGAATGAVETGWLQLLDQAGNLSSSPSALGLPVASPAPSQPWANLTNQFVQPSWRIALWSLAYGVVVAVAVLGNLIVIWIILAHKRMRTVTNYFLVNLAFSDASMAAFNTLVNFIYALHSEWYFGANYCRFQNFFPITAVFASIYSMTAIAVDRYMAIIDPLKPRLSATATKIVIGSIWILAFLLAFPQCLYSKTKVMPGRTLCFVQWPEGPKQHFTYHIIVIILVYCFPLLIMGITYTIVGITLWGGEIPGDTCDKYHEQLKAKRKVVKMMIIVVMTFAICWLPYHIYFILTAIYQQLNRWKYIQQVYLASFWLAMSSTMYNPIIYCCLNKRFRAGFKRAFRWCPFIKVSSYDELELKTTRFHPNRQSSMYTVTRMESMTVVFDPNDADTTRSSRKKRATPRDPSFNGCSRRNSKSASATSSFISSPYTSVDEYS
The assay can be described thus: co-IP; HEK293 cells co-expressing FLAG- and HA-tagged receptors; lysis in 150 mM NaCl, 50 mM Tris-HCl pH 7.5, 10 mM KCl, 1% Triton-X100, 10 mM NaF; anti-FLAG agarose 2 h at 4 °C; precipitates on SDS-PAGE without boiling; blot with anti-HA.

By UniProt entry, the sequences of proteins in these tests, tags left out.
UniProt P25103: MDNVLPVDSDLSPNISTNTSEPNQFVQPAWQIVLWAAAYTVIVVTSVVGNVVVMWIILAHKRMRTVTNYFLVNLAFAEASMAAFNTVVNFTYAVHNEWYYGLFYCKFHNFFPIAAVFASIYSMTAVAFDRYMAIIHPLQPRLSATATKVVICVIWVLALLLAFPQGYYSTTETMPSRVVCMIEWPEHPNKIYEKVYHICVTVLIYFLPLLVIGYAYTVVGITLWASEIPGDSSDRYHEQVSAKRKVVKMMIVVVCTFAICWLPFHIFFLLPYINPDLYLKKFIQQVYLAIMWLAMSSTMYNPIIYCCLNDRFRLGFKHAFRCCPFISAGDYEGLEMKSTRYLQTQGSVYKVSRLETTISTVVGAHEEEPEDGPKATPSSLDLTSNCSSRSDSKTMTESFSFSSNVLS
UniProt P49407: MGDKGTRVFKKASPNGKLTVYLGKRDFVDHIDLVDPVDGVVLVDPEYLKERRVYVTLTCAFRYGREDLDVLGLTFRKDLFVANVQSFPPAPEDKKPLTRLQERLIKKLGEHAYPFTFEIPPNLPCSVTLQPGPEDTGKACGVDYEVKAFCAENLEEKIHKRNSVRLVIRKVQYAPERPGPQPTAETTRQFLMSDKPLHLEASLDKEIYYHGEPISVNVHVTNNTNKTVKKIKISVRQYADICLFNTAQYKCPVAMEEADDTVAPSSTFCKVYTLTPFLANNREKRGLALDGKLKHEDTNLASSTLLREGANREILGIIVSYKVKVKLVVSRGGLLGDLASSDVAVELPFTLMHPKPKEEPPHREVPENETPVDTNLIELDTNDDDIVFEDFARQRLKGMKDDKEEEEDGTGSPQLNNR

For assay [3], the target named is Neurokinin-2 receptor, C-terminal SmBiT- or LgBiT-tagged (UniProt P21452). Kind of assay: split reporter; NanoBiT; HEK293 cells expressing a NanoBiT-tagged NK and NanoBiT-tagged β-arrestin1, stimulated with SP, NKA or NKB, luminescence in real time; in some experiments with untagged NK1 or NK2 co-expressed.
In assay [4] the target is Neurokinin-1 receptor, C-terminal SmBiT- or LgBiT-tagged (UniProt P25103). The assay can be described thus: split reporter; NanoBiT; HEK293 cells expressing NK1-SmBiT and β-arrestin1-LgBiT, pretreated with 1 μM aprepitant for 30 min, then 1 μM SP or 10 nM NKA.
Assay [5] shares this target. Kind of assay: split reporter; NanoBiT; HEK293 cells expressing a NanoBiT-tagged NK and NanoBiT-tagged β-arrestin1, stimulated with SP, NKA or NKB, luminescence in real time; in some experiments with untagged NK1 or NK2 co-expressed.
The target in assay [6] is Neurokinin-1 receptor, FLAG- or HA-tagged (UniProt P25103). The assay can be described thus: co-IP; HEK293 cells co-expressing FLAG- and HA-tagged receptors; lysis in 150 mM NaCl, 50 mM Tris-HCl pH 7.5, 10 mM KCl, 1% Triton-X100, 10 mM NaF; anti-FLAG agarose 2 h at 4 °C; precipitates on SDS-PAGE without boiling; blot with anti-HA.
The target in assay [7] is Neurokinin-2 receptor, C-terminal SmBiT- or LgBiT-tagged (UniProt P21452). The assay can be described thus: split reporter; NanoBiT; HEK293 cells co-expressing C-terminal SmBiT- and LgBiT-tagged NKs, 50 ng of each plasmid, luminescence in Opti-MEM at room temperature, compared with vector.

These are yes or no findings as the source states them, for the method shown. Binding seen in cells or lysates may run through a third protein. Some binding calls cover weakened binding; strength is not graded here. For some of these results: Tags and fused reporters may be left off the sequences shown.

On to “Neurokinin-1 receptor, C-terminal SmBiT- or LgBiT-tagged (from UniProt P25103 1-407)”, for which the binding result in assay [1] is “binds”.

Take “Neurokinin-1 receptor, FLAG- or HA-tagged (from UniProt P25103 1-407)”: the binding result in assay [2] was “no binding”.

Consider “β-arrestin1-SmBiT (from UniProt P49407 1-418)”, for which the binding result in assay [3] is reported as “binds”.

On to “β-arrestin1-LgBiT (from UniProt P49407 1-418)”, for which the results for the binding result in assay [4] and in assay [5] were “no binding (condition: with 1 μM aprepitant)” and “binds”, respectively.

In the case of “Neurokinin-2 receptor, FLAG- or HA-tagged (from UniProt P21452 1-398)”, the binding entry is listed as “binds” in assay [6] and “no binding” in assay [2].

B1: Neurokinin-2 receptor, C-terminal SmBiT- or LgBiT-tagged (receptor, UniProt P21452 1-398, looked up)
chain: MGTCDIVTEANISSGPESNTTGITAFSMPSWQLALWATAYLALVLVAVTGNAIVIWIILAHRRMRTVTNYFIVNLALADLCMAAFNAAFNFVYASHNIWYFGRAFCYFQNLFPITAMFVSIYSMTAIAADRYMAIVHPFQPRLSAPSTKAVIAGIWLVALALASPQCFYSTVTMDQGATKCVVAWPEDSGGKTLLLYHLVVIALIYFLPLAVMFVAYSVIGLTLWRRAVPGHQAHGANLRHLQAMKKFVKTMVLVVLTFAICWLPYHLYFILGSFQEDIYCHKFIQQVYLALFWLAMSSTMYNPIIYCCLNHRFRSGFRLAFRCCPWVTPTKEDKLELTPTTSLSTRVNRCHTKETLFMAGDTAPSEATSGEAGRPQDGSGLWFGYGLLAPTKTHVEI
Consider B1, for which the binding entry in assay [1] and in assay [7] was “binds” throughout.

B2: Neurokinin-3 receptor, FLAG- or HA-tagged (receptor, UniProt P29371 1-465)
chain: MATLPAAETWIDGGGGVGADAVNLTASLAAGAATGAVETGWLQLLDQAGNLSSSPSALGLPVASPAPSQPWANLTNQFVQPSWRIALWSLAYGVVVAVAVLGNLIVIWIILAHKRMRTVTNYFLVNLAFSDASMAAFNTLVNFIYALHSEWYFGANYCRFQNFFPITAVFASIYSMTAIAVDRYMAIIDPLKPRLSATATKIVIGSIWILAFLLAFPQCLYSKTKVMPGRTLCFVQWPEGPKQHFTYHIIVIILVYCFPLLIMGITYTIVGITLWGGEIPGDTCDKYHEQLKAKRKVVKMMIIVVMTFAICWLPYHIYFILTAIYQQLNRWKYIQQVYLASFWLAMSSTMYNPIIYCCLNKRFRAGFKRAFRWCPFIKVSSYDELELKTTRFHPNRQSSMYTVTRMESMTVVFDPNDADTTRSSRKKRATPRDPSFNGCSRRNSKSASATSSFISSPYTSVDEYS
As to B2, the binding entry in assay [2] is recorded as “binds”.

The values above are taken from article PMC10652611 (Cell & Bioscience, 2023).
